Assay results published in the supplement of paper PMC9446081.
In all, about 39,000 compounds went through this assay and about 220 (0.56%) showed activity. The list shows a part of the results.

Tested on: Escherichia coli K-12 BW25113
Test: relative growth (OD600 normalised to plate interquartile mean) (fraction); higher = less growth inhibition, active = 0.2 or less
Conditions: 50 µM; LB; incubation time: overnight (16-24 h)
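Note: static incubation at 37 °C against the wild-type strain, values averaged over two biological replicates.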

Structure (SMILES) | relative growth
C[C@@H]1CN([C@H](C)CO)C(=O)CCCn2cc(nn2)CO[C@@H]1CN(C)C(=O)Nc1cccc(C(F)(F)F)c1 | inactive: 1.01
C[C@H](CO)N1C[C@H](C)[C@@H](CN(C)S(C)(=O)=O)Oc2ccc(NS(=O)(=O)c3ccc(F)cc3)cc2C1=O | inactive: 0.987
C[C@@H]1CCCCO[C@H](CN(C)C(=O)CCCN(C)C)[C@@H](C)CN([C@H](C)CO)C(=O)c2cc(NC(=O)Nc3ccc(C(F)(F)F)cc3)ccc2O1 | inactive: 1
C[C@@H]1[C@H]2[C@H](O[C@@H]3O[C@H](CO)[C@@H](O)[C@H](O)[C@H]3O)OC=C(C(=O)O)[C@H]2C[C@@H]1O | inactive: 0.992
Cc1ccc(S[C@]2(C(=O)NC(C)C)CC(=O)N(C3CCCCC3)[C@@H]2c2ccc(CO)cc2I)cc1 | inactive: 0.996
COc1ccc(NC(=O)Nc2ccc3c(c2)CC(=O)N([C@@H](C)CO)C[C@H](C)[C@H](CN(C)C(=O)Nc2cccc4ccccc24)O3)cc1 | inactive: 0.994
O=C(O)C=CC(=O)O.OCCOCCN1CCN(C2=Nc3ccccc3Sc3ccccc32)CC1 | inactive: 0.3
Cc1ccc(S(=O)(=O)Nc2ccc3c(c2)CC(=O)N([C@H](C)CO)C[C@@H](C)[C@@H](CN(C)CC2CC2)O3)cc1 | inactive: 1.01
C[C@@H]1CN([C@@H](C)CO)S(=O)(=O)c2ccc(C3=CCCCC3)cc2O[C@H]1CN(C)Cc1cncnc1 | inactive: 1.01
CC(C)NC(=O)Nc1ccc2c(c1)C(=O)N([C@H](C)CO)C[C@@H](C)[C@H](CN(C)Cc1ccc(Cl)c(Cl)c1)OCCCC[C@H](C)O2 | inactive: 0.987
OCC(O)C(O)CO (stereo not drawn) | inactive: 0.931
O=C1CN(C(=O)c2ccc3c(c2)OCO3)CCN1 | inactive: 1
O=C(C[C@H]1C[C@H]2c3cc(NC(=O)C4CCOCC4)ccc3O[C@H]2[C@H](CO)O1)NCc1ccc(Cl)cc1 | inactive: 1.04
Cc1ccc(N2C[C@@H](N)CC2=O)cc1 | inactive: 0.971
CCC(=O)N1CCC[C@](C)(C(=O)NS(=O)(=O)c2ccc(S(C)(=O)=O)cc2)C1 | inactive: 0.927
C[C@@H]1CN([C@@H](C)CO)C(=O)c2cc(NS(=O)(=O)c3ccccc3)ccc2O[C@@H](C)CCCCO[C@@H]1CN(C)S(=O)(=O)c1cn(C)cn1 | inactive: 1.01
C[C@@H]1CN([C@H](C)CO)C(=O)c2cc(NC(=O)Nc3ccc(C(F)(F)F)cc3)ccc2O[C@H]1CN(C)Cc1ccc(C(=O)O)cc1 | inactive: 0.952
C[C@@H]1CN([C@@H](C)CO)C(=O)c2cc(NC(=O)Nc3ccc(C(F)(F)F)cc3)ccc2O[C@@H]1CN(C)Cc1ccc(C(=O)Nc2ccccc2N)cc1 | inactive: 1.02
Nn1c(-c2ccncc2)n[nH]c1=S | inactive: 0.977
C[C@@H]1CCCCO[C@@H](CN(C)Cc2ccc3c(c2)OCO3)[C@H](C)CN([C@@H](C)CO)C(=O)c2cc(NS(=O)(=O)c3ccc(Cl)cc3)ccc2O1 | inactive: 0.966
C/C=C\C1=C(C(=O)O)N2C(=O)[C@H](NC(=O)[C@@H](N)c3ccc(O)cc3)[C@@H]2SC1 | inactive: 0.912

Structure (SMILES) | relative growth
CCOC(=O)[C@H]1CC(C)=NNC1=O | inactive: 1.01
C[C@@H]1CN([C@@H](C)CO)C(=O)c2cc(NS(=O)(=O)c3ccccc3)ccc2O[C@@H](C)CCCCO[C@H]1CN(C)C(=O)c1ccccc1 | inactive: 1
C[C@@H]1CN([C@@H](C)CO)C(=O)c2cc(C#CC3(O)CCCC3)cnc2O[C@H]1CN(C)C(=O)Cc1ccccc1 | inactive: 1
Cc1noc(C)c1NC(=O)N(C)C[C@H]1Oc2c(NC(=O)C3CCOCC3)cccc2C(=O)N([C@@H](C)CO)C[C@H]1C | inactive: 0.999
Cn1cc(C(=O)N2C[C@@H]3COC[C@@]3(CNS(C)(=O)=O)C2)cn1 | inactive: 1.02
Cc1ccc(S(=O)(=O)NCC[C@H]2CC[C@@H](NS(=O)(=O)c3ccccc3Cl)[C@H](CO)O2)cc1 | inactive: 1
OCCNC(=S)c1ccccc1 | inactive: 0.998
Cc1ccc(S(=O)(=O)N(C)C[C@@H]2OCCCC[C@@H](C)Oc3ccc(NS(=O)(=O)c4ccc(Cl)cc4)cc3C(=O)N([C@@H](C)CO)C[C@H]2C)cc1 | inactive: 1.02
COCCOC(=O)N1C(=O)[C@@]2(c3cc(C#CCCO)ccc31)[C@H](C(=O)NC[C@H](O)c1ccccc1)[C@H]1C(=O)O[C@H](c3ccccc3)[C@H](c3ccccc3)N1[C@@H]2c1ccc(O)cc1 | inactive: 1.01
C[C@@H](O)C[C@H]1CC[C@@H](O)[C@@H](C)C(=O)O[C@@H](C[C@@H](C)O)CC[C@@H](O)[C@@H](C)C(=O)O1 | inactive: 0.982
COc1ccc(NC(=O)Nc2ccc3c(c2)CC(=O)N([C@@H](C)CO)C[C@H](C)[C@@H](CN(C)Cc2ccc(Oc4ccccc4)cc2)O3)cc1 | inactive: 1.07
NC(CSSCC(N)C(=O)O)C(=O)O (stereo not drawn) | inactive: 1.02
O=c1cc(C(F)(F)F)[nH]c(=O)[nH]1 | inactive: 0.996
C[C@@H]1CN([C@@H](C)CO)C(=O)c2cc(NS(C)(=O)=O)ccc2O[C@H]1CN(C)Cc1ccc(C(=O)Nc2ccccc2N)cc1 | inactive: 1
C[C@@H]1CCCCO[C@@H](CN(C)S(=O)(=O)c2ccc(Cl)cc2)[C@@H](C)CN([C@H](C)CO)C(=O)c2cc(NS(=O)(=O)c3cccs3)ccc2O1 | inactive: 1.03
N[C@@H](C[C@@H](F)C(=O)O)C(=O)O | inactive: 1
C[C@@H]1CN([C@H](C)CO)C(=O)c2cccc(NC(=O)CCCCCC(=O)Nc3ccccc3N)c2O[C@H]1CN(C)Cc1ccc(Cl)c(Cl)c1 | inactive: 1
CCc1cccc2c3c([nH]c12)C(CC)(CC(=O)O)OCC3 (stereo not drawn) | inactive: 1.05
C[C@H](CO)N1C[C@H](C)[C@H](CN(C)C(=O)Nc2ccccc2)OCCCC[C@H](C)Oc2ccc(NC(=O)c3ccncc3)cc2C1=O | inactive: 1.02
Cc1noc(NS(=O)(=O)c2ccc(N)cc2)c1C | inactive: 0.894
CC1CC2C3CC(F)C4=CC(=O)C=CC4(C)C3(F)C(O)CC2(C)C1(O)C(=O)CO (stereo not drawn) | inactive: 1.09

Structure (SMILES) | relative growth
N[C@]1(C(=O)O)C[C@H](C(=O)O)C1 | inactive: 1.05
C[C@H](CO)N1C[C@H](C)[C@H](CN(C)C(=O)C2CCCCC2)Oc2cc(C#C[C@@H](C)O)ccc2S1(=O)=O | inactive: 0.93
Cc1ccc(S(=O)(=O)N(C)C[C@@H]2OCCCC[C@@H](C)Oc3ccc(NC(=O)C4CCCCC4)cc3C(=O)N([C@H](C)CO)C[C@H]2C)cc1 | inactive: 1.01
CCC[C@H](NC(=O)[C@@H]1[C@H]2CCC[C@H]2CN1C(=O)[C@@H](NC(=O)[C@@H](NC(=O)c1cnccn1)C1CCCCC1)C(C)(C)C)C(=O)C(=O)NC1CC1 | inactive: 1.16
C[C@@H]1CN([C@H](C)CO)C(=O)c2cccc(NC(=O)CCCCCC(=O)Nc3ccccc3N)c2O[C@H]1CN(C)Cc1ccccc1 | inactive: 0.986
NC[C@H]1O[C@H](O[C@@H]2[C@H](O)[C@@H](O[C@H]3O[C@H](CO)[C@@H](O)[C@H](N)[C@H]3O)[C@H](N)C[C@@H]2N)[C@H](O)[C@@H](O)[C@@H]1O | inactive: 0.983
C[C@@H]1CN([C@@H](C)CO)C(=O)c2cccc(NC(=O)c3ccc(-c4nccs4)cc3)c2O[C@@H]1CN(C)CC1CCCCC1 | inactive: 0.982
OCC(O)C(O)C(OC1OC(CO)C(O)C(O)C1O)C(O)CO (stereo not drawn) | inactive: 0.915
CC(C)NC(=O)[C@@H]1c2ccccc2C(=O)N(Cc2cc(F)cc(C(F)(F)F)c2)[C@H]1c1ccc(CO)cc1 | inactive: 0.867
C[C@H]1CN([C@@H](C)CO)C(=O)c2cccc(NC(=O)Nc3ccc(F)cc3)c2O[C@@H]1CN(C)C(=O)Nc1ccc(C(F)(F)F)cc1 | inactive: 0.895
Cc1noc(C)c1S(=O)(=O)N(C)C[C@@H]1Oc2c(NS(=O)(=O)c3cn(C)cn3)cccc2C(=O)N([C@@H](C)CO)C[C@@H]1C | inactive: 1.02
Cn1cnc(CCNC(=O)C[C@@H]2CC[C@H]3[C@@H](COC[C@H](O)CN3C(=O)Nc3ccc(C(F)(F)F)cc3)O2)c1 | inactive: 0.963
Cc1ccc(S(=O)(=O)N(C)C[C@H]2Oc3ccc(NS(=O)(=O)c4c(C)noc4C)cc3CC(=O)N([C@H](C)CO)C[C@@H]2C)cc1 | inactive: 0.976
Nc1nc2c(s1)CNCC2 | inactive: 1.01
COc1ccc(NC(=O)Nc2ccc3c(c2)C(=O)N([C@@H](C)CO)C[C@@H](C)[C@H](CN(C)S(=O)(=O)c2cccs2)OCCCC[C@H](C)O3)cc1 | inactive: 1.02
CCS(=O)(=O)N1CC[C@]2(CC1)CN([C@@H](CO)c1c2c2ccc(cc2n1C)OC)C(=O)c1ccc(cc1)F | inactive: 0.994
COc1ccc(NC(=O)Nc2ccc3c(c2)C(=O)N([C@H](C)CO)C[C@H](C)[C@@H](CN(C)C(=O)NC(C)C)OCCCC[C@@H](C)O3)cc1 | inactive: 1.02
C[C@@H]1CN([C@@H](C)CO)S(=O)(=O)c2ccc(C#C[C@@H](C)O)cc2O[C@H]1CN(C)C(=O)Cc1ccccn1 | inactive: 1.01
C[C@H](CO)N1C[C@H](C)[C@@H](CN(C)C(=O)CN2CCOCC2)Oc2cc(C#Cc3cccc(F)c3)ccc2S1(=O)=O | inactive: 1.02
NCC[C@H]1CC[C@@H](NC(=O)Cc2ccncc2)[C@H](CO)O1 | inactive: 0.997
C[C@H](CO)N1C[C@H](C)[C@H](CN(C)Cc2ccc(Oc3ccccc3)cc2)Oc2ccc(NC(=O)CCC(F)(F)F)cc2C1=O | inactive: 1
